From the supplement of paper PMC11417369
The list shows a part of the results.

test system: PfSIP2 AP2 domain 1 (GST-tagged); experiment: gcPBM binding intensity (ln(normalized median fluorescence intensity)); higher = stronger DNA binding
In short: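 The binding buffer was 1× PBS containing 1% milk, 0.2 mg/ml BSA, 0.5% salmon testes DNA and 0.03% Triton X-100. In it, GST-tagged P. falciparum DNA-binding domains expressed in E. coli were applied for 1 h to an Agilent 4 × 180k array of primer-extended double-stranded 36-bp intergenic genomic probes plus negative controls. Binding intensity, read with Alexa488 anti-GST antibody and a 488 nm scan, is the highest Masliner-normalised natural-log median intensity across replicate spots of either probe orientation.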

Sequence	gcPBM binding intensity (ln)
ATTATTTTGTTTATTACATGCAGGTGTATATTACAG [TGCATGCA_site723]	7.2
GAGTATATTTATATTGCACACAATTTTTTTATTTTT [CACACA_site2644]	6.85
ACATGAATTTATATGTGTACTAACTATATTCTTAAA [XGTACX_site5966]	6.92
TATCTGTATTTATTCACACATATAAAATATAATTAA [CACACA_site5560]	7.19
ATGAATAAATAGGTCACACACAAATATTTATAAATA [CACACA_site7186]	7.03
TCTGGCATATAATATTGTACACATATATATATATAT [XGTACX_site8182]	8.73
TATATACAATATAGGTGTACATTTTTTTATCTATTT [XGTACX_site8431]	7.43
AACGGGGGTAGTTTTATGCACACGTTTATTAATGCT [CACACA_site3173]	7.88
GATATGAATATAGGTTGTACTATATATAAAGTATGT [XGTACX_site1877]	7.21
TATATGTTAATTTTTTTTTTTTTTTTTTTTTTTATA [CACACA_negctrl_site62]	6.61
AAAGTACAAGTATAATCACACGTGTCTATTATATAC [CACACA_site4507]	6.77
AATATCTTAGTGGATACACACATATAAATGTGTATT [CACACA_site6367]	6.75
CTTTCAATTTTTTTCTGTACCAATAAAAAATATAAA [XGTACX_site2120]	7.18
ATAATGTTTTATAATACACACATTATATATATAAAT [CACACA_site6101]	6.9
ATATTTATGTAAAAAAGTACATACAATTATATATGT [XGTACX_site3750]	6.97
GATTACAAAAAAAATACACACAAAAAAAAAAAGGAA [CACACA_site2096]	6.99
ACACATACATACATATGTACATATATACATATATAC [XGTACX_site5559]	7.46
AGTAAACGATGATGTTGTACAAAAAGGATAATTTAA [XGTACX_site6698]	7
TTTTTATTTTTTATGTAATTTAAATAATTATTCAAA [CACACA_negctrl_site1549]	6.77
CAATACTATTATTATAGTACGTATAAAATTATATAT [XGTACX_site4950]	7.1
TACAAAAAAGAAGATATTCAAACAAAAACAAAAAAA [CACACA_negctrl_site1126]	6.8
TATATATATATGCTACGTACATATATATTATATATA [XGTACX_site7894]	8.92
TATCATAATAGACACAGTACATATATGTCTTAAATT [XGTACX_site8775]	6.95

Sequence	gcPBM binding intensity (ln)
GTATTCTTCTCTCCGTGTACATATATATGTATATAT [XGTACX_site803]	7.7
AAACCGTGGGAGCACACACACACACGCGCACATATA [CACACA_site6288]	7.07
GTAACCCACCAAAATGCACACATTAAAAAAAAAAAA [CACACA_site1046]	8.06
TGTTTCTAAAAAAAAGGTACACATATATATAATATA [XGTACX_site3217]	7.1
ATAGTTTATACAAATAGTACGCACAAAAAAAAATAA [XGTACX_site6727]	7.24
AAAAAATTTCAAATGACATAATGTAATTTCCCTTTT [GTGCAC_negctrl_site673]	6.53
AATACCGGAAAGCAAACACACATTTGAAAACCATAA [CACACA_site7761]	6.95
TATATATTATATATATGTACATATTTATTTTATTTT [XGTACX_site6989]	7.28
TTTATCAAAATAAATGCACACAAATTGCACATATCT [CACACA_site8281]	9.03
TATATATAAACAAAATGTACATATTTGAGATACCCT [XGTACX_site2195]	6.99
ATGAACATTTATAAATGTACTCACATATATATATTT [XGTACX_site6692]	7.02
TTTATATTTATCCAAAGTACTTTTTAAAAACATACC [XGTACX_site4518]	7.36
AGATATATATTTTATTGTACACATTAAAGTATAAAA [XGTACX_site7194]	6.99
AACATTTTTAGATTATATTATTAAATAAGTAACTGC [XGTACX_negctrl_site326]	6.81
AACACTTTAATTTATGCACACATATGGAACAACAGC [CACACA_site8241]	7.92
AAGTTTTTTATTTTTTGTACATAAAAAATAATAATT [XGTACX_site1755]	7.02
TATGTATTTATATATACACACTTCTGTGATACGAAA [CACACA_site5128]	6.87
TTTTTGTTTTTTTTTTGTACATATATATAAAAAATA [XGTACX_site1214]	7.14
TTTTTTTTAATATTTTACATTGTCTGTTAACAAATA [CACACA_negctrl_site599]	6.88
GGGAGGATAGTTCACAGTACCCAGTAACTCTACGGA [XGTACX_site2558]	7.12
ATTTATTGACTATTTACACACATATTTATTAGAATA [CACACA_site6863]	7.11
ATGATACATAAAGAATATAAAACATGAAATATAATA [CACACA_negctrl_site1461]	6.8
AACTGAGAAACCGAAGTGCAATATGTATATATACAT	7.56

Sequence	gcPBM binding intensity (ln)
ATATATAATATATATGCATGTGACATTAATAATATA [TGCATGCA_site880]	7.15
TAATTTAAAAATATAAATGTTTCACTTATATATTTT [TGCATGCA_negctrl_site399]	6.62
ATATGAAAGGTGTACACACGCACACCCAAAAAAATA [CACACA_site2911]	7.93
CCACACTTAAAATACACACACACCAAAAAAAAAAAA [CACACA_site2709]	7.24
TACACCCATGGACACACACACACGCATAAAAAAAAA [CACACA_site4933]	7.4
AAAAAAAAAAAAAAAACACACATTTGAAAGAAAGAA [CACACA_site3339]	7.78
ATTTTTATTTTCTTTACACACCACATAATTTTTTTT [CACACA_site6092]	7.31
GCCACACTTTTCTGCACACATAAAAAATATATAAAT [CACACA_site578]	8.53
CATAAGAGGAACTTTTGTACTTATATGTATATAGTA [XGTACX_site5836]	6.83
CTTTTATGAAACAGTGCACACATAAAAATATATACA [CACACA_site8981]	11.3
TATATCGTTATATAAACACACAATATGTTTTTTATA [CACACA_site7730]	6.86
TTAACATAGATATATACACACCAATGATGGCATTTA [CACACA_site6840]	6.71
TATATATATATATATATACACACTATATAATTCAAA [CACACA_site1023]	9.03
TTTTTTTTTTTTTAGAGTACACACTTTTTTACATTT [XGTACX_site8159]	7.19
CATAAAATATAAAACACACACACATATATTTATATA [CACACA_site6247]	6.95
AAATAAAAGTTCACCTGTACACACATATATATATGT [XGTACX_site3513]	7.13
ATATATAATACTACAGTGCAATATATTATATTTGTT	7.76
TTCCTCTTAAAATATACACACTGATTTAAGAAAAAA [CACACA_site5770]	7.21
GCAAATCATGCTATGGTGCATATGTAAGATGAGCAT	10.6
TTGTGATTATTATATTGTACAATAAGTATTAAAGAA [XGTACX_site2753]	7.26
ATACTAAATATAAATTGTACTTTATTTATATTGAGA [XGTACX_site8699]	7.1
AGAATACATCTATGAACACACAGAGTTTTAAAAAAT [CACACA_site5514]	6.76
TTTTTCATTTAACAGAAGGGAGATAAAAAAAAAAAA [TGCATGCA_negctrl_site261]	7.12

Sequence	gcPBM binding intensity (ln)
ATATTATTTTAAAGTACACACATATATTGATATATA [CACACA_site7153]	7.24
AATAATTATAAAAAATGTACAAAAAAAAAAAAAAAA [XGTACX_site3681]	7.13
GTATGTATGTATGTATGTACGTATGTATGTATATAT [XGTACX_site3369]	8.32
AAAATAATATTTAATACACACATAATTATAATATAA [CACACA_site782]	6.9
ATTTTTAATTGAATCACACATTTCCTTTCTTTTGTG [CACACA_site4438]	6.97
ACCTTTTGGATTATATGTACATATATATATATATAT [XGTACX_site2687]	9.59
ATTAAAAATAAGAAGAGTACATATAATATATATACA [XGTACX_site3092]	6.87
TTAAAAAGAAAGTTCACACACATATATATGACGGAA [CACACA_site2602]	7.12
CATAGAATAATTTATTGTACGTGCATGCTATTTTTT [XGTACX_site8984]	7
TATACATTTTTATAAAGTACACAAAAATAAATATAA [XGTACX_site1647]	7.13
ATTAAATATATGATGTGTACATATTCGTGTATGTTT [XGTACX_site2141]	7.06
AAACAGAATACATATACACACATACAAAAAAGTGCA [CACACA_site8235]	7.52
AAAATAAATTTTTATGTTATATATACAATTTCTCTA [CACACA_negctrl_site1760]	6.73
TATAATATTTATATAACACACATATATATTTATTTA [CACACA_site280]	6.92
AATGCTATCTTCTTATTTTTCATACACAACATGAAC [CACACA_negctrl_site1809]	7.16
TTATGAAATAGAATAACACACATATTTATATATGTG [CACACA_site2050]	6.73
TATTTTTTTAAAAATACACACATAAAATCATGAAAA [CACACA_site1085]	7.14
TTTTTTTATATTTTTAGTACACATTGGTATATATAT [XGTACX_site4114]	7.53
ATATATATATGTCAAAGTACTAAAAATATATACATA [XGTACX_site3397]	8.76
TATCACATATTATGATGTACAAGGATTCTGACTAAT [XGTACX_site1196]	6.75
